According to the supplement of paper PMC11417369:
± gives the standard deviation of the averaged measurements. The list shows a part of the results.

tested on: PfAP2-G AP2 domain (GST-tagged); experiment: gcPBM binding intensity (ln(normalized median fluorescence intensity)); higher = stronger DNA binding
Method in brief: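 Binding intensity is defined as the maximum Masliner-normalised natural-log median intensity across replicate spots for either probe orientation. It was measured on an Agilent 4 × 180k array of primer-extended double-stranded 36-bp intergenic genomic probes and negative controls, to which GST-tagged P. falciparum DNA-binding domains made in E. coli were applied for 1 h in 1× PBS with 1% milk, 0.2 mg/ml BSA, 0.5% salmon testes DNA and 0.03% Triton X-100. Detection was by Alexa488 anti-GST antibody and scanning at 488 nm.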

Sequence	gcPBM binding intensity (ln)
ATAAAACAAAAACACACACACATACACAAAAAAAAA [CACACA_site3848]	10.2 ± 0.26
TTTATATTATTATATCTTATTAATTATTTATCATTT [TGCATGCA_negctrl_site73]	9.84 ± 0.24
AATAATATTAACACACGTACAAAAGCAAACAACCAA [XGTACX_site7410]	11.3 ± 0.77
ATACATTCTAATACGTGTACATATATATATATATAT [XGTACX_site1881]	11.4 ± 0.81
CATATACATTGTATATGTACATATATATATATATAT [XGTACX_site3772]	11.2 ± 0.57
GATTATATATTAAAAAGTACTTTATAAATACTTCTA [XGTACX_site8992]	11.1 ± 0.57
TGATGCAAAATATATACACACATATATATATATATA [CACACA_site3052]	10 ± 0.3
TATATAGTTTATATTTGTACATATAGACATTTATAA [XGTACX_site6414]	10.8 ± 0.43
ACAAAACTCTTTAATTGTACAAATATAATATAAAAA [XGTACX_site5690]	10.9 ± 0.53
AGCAATATTTATTAAAGTACGTAAAAAAAATTCTCA [XGTACX_site6550]	11.3 ± 0.89
AACCATTGGGAAAGGGTGCACATATATATATATATA	10.6 ± 0.79
TATGGGTTTATATAGGTGCAATATATGTATATATAA	10.1 ± 0.32
TATACCACCCGATATACACACTTGTAGACATCTTTT [CACACA_site4268]	10.1 ± 0.021
TATATATGTATAAGAGTGCATATGCATATATGTATA [GTGCAC_site9692]	9.92 ± 0.13
TAAAATATGGAAATCACACATTTATTAAAATATATA [CACACA_site4623]	9.71 ± 0.11
TTATGTTTATACACTACACACATTATTCATAAAAAA [CACACA_site4637]	10.3 ± 0.39
ATATATATATAATATTGTACATAGTAGACATCACAC [XGTACX_site4649]	11 ± 0.61
TCTTATTATAAAAGGAGTACATCAATTAGATGTTCC [XGTACX_site8465]	11.6 ± 1
TTTGAGATGTGGTGTACACAAAATTAGGTACACATC [CACACA_site5773]	12 ± 0.85
CACAAATATATACATACACACATATATACACATATA [CACACA_site8024]	10.11 ± 0.049
AAAACGCAGTTTAATATACACACCAAAAAAAAAAAA [CACACA_site3036]	9.84 ± 0.21
TATGATAACCATAATTGTACAGAATGAAACGTAAAT [XGTACX_site1653]	10.8 ± 0.42
AGAAAAAAAAAAAAAAATAAAAAAATAAATAAATAA [GTGCAC_negctrl_site161]	9.39

Sequence	gcPBM binding intensity (ln)
ACTTAAATAATACATACACACATGTACTTACAGAAA [CACACA_site8458]	11.3 ± 0.85
TGTTTTTAAAAATATACACACACAGATATTATATAT [CACACA_site8162]	10.1 ± 0.049
TTTTATATTTATTTTTGTACATAAATGATCTCAAAT [XGTACX_site7768]	11 ± 0.54
AAATATTATAATAATTGTACTATATATACAGTTATT [XGTACX_site1963]	10.7 ± 0.43
TAAAATATGTCATGGGTGCTTCTTTTTATACCTATG [GTGCAC_site9888]	10.25 ± 0.028
AAAAAAAAAAAATTATGTACATATTATATATAATGG [XGTACX_site2885]	11.2 ± 0.42
ATATATATATATTTATGTACGCATTTATAGACGTAG [XGTACX_site6031]	11.6 ± 1.1
AAAAAAAAAAAAAAAGTGCATATATAAATATTGTAT [GTGCAC_site9459]	10.2 ± 0.37
TCATTAAATGTTTAGGTGCATACTTTAATTTTTAAT [GTGCAC_site9906]	9.95 ± 0.17
AATTGTTTTTTTTTCTTATTTTATGTTATACACACA [TGCATGCA_negctrl_site380]	9.97 ± 0.042
AAAAAAAAAAAAAACACATGCAGAAGAAAAAAAATA [TGCATGCA_site545]	10.1 ± 0.4
AAATGAACATATATGTGTACTTATATTTTTCTAAAT [XGTACX_site3388]	11.4 ± 0.88
ATATATTTTTCTTTACGTACGAAGCAAAATAACATT [XGTACX_site8145]	10.9 ± 0.58
CCATATATTTGGTATAGTACTTTTTATTTTATTTCA [XGTACX_site8933]	11.1 ± 0.5
TATTAATTTCGGGAAGTGCATTATGTTTATAGAATA	10 ± 0.17
ATTATATAAGTACACAAACAAGTATGAGATTCAAAA [GTGCAC_negctrl_site119]	11.5 ± 1.2
TGTTTTAAACTAATTTGTACATAGTTATTTATATTT [XGTACX_site7196]	10.7 ± 0.26
AATTCTTTATTATATGCACACGTACATATAATATAT [CACACA_site8621]	11.4 ± 0.98
AAAAAATGTTATAAAAGTACATAATTTATCTACCAT [XGTACX_site3035]	11.2 ± 0.81
TGGGAAAAAATATATGCACACCCCCCAAAAAAAAAA [CACACA_site8696]	11.6 ± 0.81
TAACTTTGGAGGAGCTGTACGATTATTTTGATCCTT [XGTACX_site2514]	11.3 ± 1
AAAAAATTTCAAATAACACACACTAATATAAATATG [CACACA_site6783]	10.1 ± 0.15
